Assay results from publication PMC12136788.
The list shows a part of the results.

T1: UNK ZnF1-3 (human, UniProt Q9C0B0 31-174)
T1 sequence: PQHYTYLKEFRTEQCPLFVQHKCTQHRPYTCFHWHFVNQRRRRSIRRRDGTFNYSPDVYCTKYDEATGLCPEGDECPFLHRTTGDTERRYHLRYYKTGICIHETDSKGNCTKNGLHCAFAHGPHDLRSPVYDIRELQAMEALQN

B1: 151880847_151881223_522_CDS_ENSMUSG00000028034_ENSMUST00000166984|mouse|control|control (ssRNA)
RNA: GGGAGUUCUACAGUCCGACGAUCAGGUGUUCCAGUUAGCAUACAAGACCUUUCUGGUAGGCCACCACUAUCAGGUGCUAUCUGUAUCUUGCAUCCAGAUUCCUGCUGUAUUCGUGAGAUCUGUUCACCUCCUCUGCCAAUUAUCAACAGAGGAUUGAGCAUCA
B2: chr7:130129250:130129251:+_ENSMUSG00000030779_ENSMUST00000052135|mus_hu|motif|central (ssRNA)
RNA: GGGAGUUCUACAGUCCGACGAUCCUCCUCUGGUAAGAAGGGAGGUUUCUCUUUCUUCCCAAUUGCAUAUGCUUCUGCAUCGGUAGUUGGUAUUGCAUAUUUUCCAGUGUUGGUAAGCAUUGCACCUUUCAUAUUAGGAUCUUUCAACAGAGGAUUGAGCAUCA
B3: 3247649_3247769_182_3pUTR_ENSG00000101608_ENST00000217652|human|control|control (ssRNA)
RNA: GGGAGUUCUACAGUCCGACGAUCUCUUGGCCCGCAGAGUGGGUCUGACUUCACGGAGGGGCGACAGAGAGGGAAGUCGCCAGUGUGGUCAGCGGGCGUGGUAUUGACCAAGUGCAUGAGAAGGAAGUGUAAAGUGGGCGACCUCAACAGAGGAUUGAGCAUCA
B4: chr17:39847130:39847131:+_ENSG00000173812_ENST00000469257|hu_hu|FALSE|FALSE (ssRNA)
RNA: GGGAGUUCUACAGUCCGACGAUCGUUACAUUAUACAAGCUGUGAGGUUUUUAAACCUGUGACAAGGGAGAGAAGGGAAAUUCUACUCAUUGCAAGGAAAUCCUCACUUAAGCUUCAGUGAGCCACAAGCACUUAAAACCCAUGCAACAGAGGAUUGAGCAUCA
B5: chr9:135205225:135205226:-_ENSG00000107290_ENST00000224140|hu_hu|FALSE|FALSE (ssRNA)
RNA: GGGAGUUCUACAGUCCGACGAUCUGCAGAAGUCAGAUCCACAAAAGUGUUACAUGGAGGUGCUUUGAAUUUUAUGUUUCUAAUAAUUUGCUUUAAGCAACUUUGUAGCUCAUGGGUUUCCUGACUAGUCAACUGCCAACCUAGCAACAGAGGAUUGAGCAUCA
B6: 38783104_38791802_1884_CDS_ENSG00000006715_ENST00000395969|human|control|control (ssRNA)
RNA: GGGAGUUCUACAGUCCGACGAUCAAUCAUCUUCAGGGCACUUCGGCUAUUACCCAUUCGGCUCAGAAGAUAAACUGUCUCUUCUACAAAGUUUCUCUGUUGACAGAUCUCAAGAGCCUUUUCAAGUGGGCAAUGGGUACUGUCCAACAGAGGAUUGAGCAUCA
B7: chr10:36716825:36716826:+_ENSMUSG00000019777_ENSMUST00000019911|mus_mus|FALSE|FALSE (ssRNA)
RNA: GGGAGUUCUACAGUCCGACGAUCGGCAACAUUCCGGAUUGUGUAGCCUCCUCCACCGAGCAUCAGCAAUGGCAAGUUAAAAGUUUUCACUACUUCUACACAUUUAGCAUGACCUUUGACAGUUAGAUUGAAACAACCAAGCCUCAACAGAGGAUUGAGCAUCA
B8: chr4:65274301:65274302:+_ENSMUSG00000051675_ENSMUST00000050850|mus_hu|motif|central (ssRNA)
RNA: GGGAGUUCUACAGUCCGACGAUCGUGCAGAAGCUUGGGACGCAGCUGCUCUUCUGUGAAGGACUCCAUGCAGAUGGGGCAUUCGGGCACUUCCCGGAGGGCAUCCAGGUUCAGGUGAGAAGCUGCUGCUGCAGCCAUUGCUCUCAACAGAGGAUUGAGCAUCA
B9: chr1:220276048:220276049:+_ENSG00000067704_ENST00000302637|hu_hu|hu_hu_hu_mus_True|58_68 (ssRNA)
RNA: GGGAGUUCUACAGUCCGACGAUCGCAAAUUGCCUGGUUGGCGGGAAUUGUCCAAGGCUGGGUGGUCCAGACCAAAAUACUAACAGGGGAUGAGGCAUCUGUAAGAGACUCCAACUUCGGAGGAGGUCUCAGGAGGGGGAAUCUCAACAGAGGAUUGAGCAUCA
B10: 35327902_35333505_881_CDS_ENSG00000108094_ENST00000537177|human|control|control (ssRNA)
RNA: GGGAGUUCUACAGUCCGACGAUCGUGGUCUGCUACCAUUCGUUGUUGACAUUCAUGAAUCACCUUAGUAUAUGAACUUGGAUGUAGGUAUUUUCGACAUCGAAUUUCUUCAUCUUUUAAUCUACCUAGAACCUUUUCCAUAUACAACAGAGGAUUGAGCAUCA
B11: 98515251_98519444_2840_CDS_ENSG00000196367_ENST00000355540|human|control|control (ssRNA)
RNA: GGGAGUUCUACAGUCCGACGAUCCUUACCGAGCACACGGUAGGCCACGUGGGAGAUGCUGUCAGCAGGGUUGCGUAAGGUGCGCCACAGAGCCUGCAUGAGCUCUGCGCGCACCGGCUGGAUGUGGUCGUAGAGGAAGUCGGGCAACAGAGGAUUGAGCAUCA
B12: 18861663_18861783_5531_CDS_ENSG00000157106_ENST00000446231|human|control|control (ssRNA)
RNA: GGGAGUUCUACAGUCCGACGAUCAGUUGCACUUUCAUCAAGUUCUGAAAGCCAUGGGCAGCUUGAUAUCAACUGACGCCAGAUAACAUCAACCAUGUCAUCUUCUUCGUUGUCUUCACUCUCAGUUAUCUGAAGUGUUAUAUCCAACAGAGGAUUGAGCAUCA
B13: chr2:153237265:153237266:-_ENSMUSG00000061411_ENSMUST00000109784|mus_mus|mus_mus_mus_hu_False|28_98 (ssRNA)
RNA: GGGAGUUCUACAGUCCGACGAUCAAAAAAAAAAAAAGAAAAGUGUCCUUGUGCCCAAAGUCUCAGGUGCUUGGAGUGUGGCUAGAAACAGCUCUUUUGGAUCCCACCUCUUUCAGAAACAAAAUGUACCAACUGGUGAGGCAGCAACAGAGGAUUGAGCAUCA
B14: chr4:140556289:140556290:+_ENSMUSG00000036622_ENSMUST00000037055|mus_mus|mus_mus_mus_hu_False|18_28 (ssRNA)
RNA: GGGAGUUCUACAGUCCGACGAUCGAUGGAGCUCACCAGGCCCCCUUUUGCCGUGCAGAACCCUGUGCGGGUCACCACUGCCAGGACGUGCGGUCCCACAUAGGCCCGGGCCUGCAGAAUGAGGGUGCCGCAGAAGAGUGUGUGCAACAGAGGAUUGAGCAUCA

These binders were tested against T1, UNK ZnF1-3 (assay: nsRBNS (natural sequence RNA bind-n-seq); RBNS binding buffer (assumed for nsRBNS): 25 mM Tris pH 7.5, 150 mM KCl, 3 mM MgCl2, 0.01% Triton X-100, 500 ug/ml BSA, 20 U/ml SUPERase-In, 4 C; UNK is unkempt and MSI1 is Musashi-1; names of the RNAs are library labels; protein concentration not given here; high values mean tight binding).
Work on B1 yielded a binding signal of 0.627 enrichment R.
Work on B2 yielded a binding signal of 0.366 enrichment R.
Binder B3 has a binding signal of 1.23 enrichment R.
With B4 the binding signal was 1.25 enrichment R.
B5 was tested, and the binding signal was 1.31 enrichment R.
Binder B6 has a binding signal of 0.393 enrichment R.
Work on B7 yielded a binding signal of 1.73 enrichment R.
B8 showed a binding signal of 0.843 enrichment R.
Binder B9 has a binding signal of 2.19 enrichment R.
B10 showed a binding signal of 0.572 enrichment R.
For B11, the binding signal was 1.31 enrichment R.
For B12, the binding signal was 0.541 enrichment R.
B13 gave a binding signal of 2.16 enrichment R.
B14 showed a binding signal of 0.672 enrichment R.
